# Experimental data published in the supplement of paper PMC8728848.
# This is one part of the list.
# B1: CvGal2 (Crassostrea virginica) (protein)
# chain: MGSSHHHHHHSSGLVPRGSHMRIREAGKRKDTTKVYQIPDGLFPGQQVMLRGRVPWGSKSFSINFSATPRMGEGDILFHLNPRPSEGVCIRNALLNGSWGAEEKWQPYFPFDDGRSFSVKIEVTNDAFRTFVNGRPFVDFLHRTDFRAGKYLTLREGAEYYDVIFQSKPNIPLTTAIHNGMRIGKTIRIRGMCTAQDGFAINFNDNRNNIYFHFNARPAQRTVVRNSYFGSWGNEETAISKEFPFYPFLYFYASFVCMEDKFAVYVNDEHFIDFAHRGNPNNISVLQIKGSVNVLDTECLEPMGEDAMTEVDSGLENGDLFVLNGLMTERGKTFAVNFLNGFTENDDIALHFNPRKSTGEVVLNSRYGGAWQSEEKVALPGVFWSNRPLQVKVETKRNKFKIYVNGVDLAKYKIRGNVEDVHAVQVKGDVFLLETLLLKRLMKPVWERLTGGIRPGTWVTLQGTPKKNWQQFVVNFALDDTLDGDIAFHFNVRRGARQVVRNHRQSGAWGREETVTPFFAFDSEATFEIVFFVKEEKFLIYFNGKLFFEFVHRVPVERITHIYMDGDCNFYEPEVVI
# How the values were obtained:
# Assay in all cases: glycan array binding signal (z-score within array); higher = stronger binding
# Conditions in all cases: glycan notation: IUPAC condensed, linker removed
# [1] = target: Neu5Ac(a2-3)Gal(b1-3)GlcNAc6S
# Method in brief: (§1)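 Columns mapping to the same glycan were averaged after glycan names were converted to IUPAC-condensed notation. The data come from 3228 arrays in the Consortium for Functional Glycomics database, limited to those with an available protein sequence. Binding is reported as a within-array Z-score averaged across arrays of one protein sequence and across linkers.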
# [2] = target: Neu5Ac(a2-3)Gal(b1-3)[Fuc(a1-4)]GlcNAc
# Method in brief: as §1
# [3] = target: Neu5Ac(a2-3)Gal(b1-3)[Fuc(a1-4)]GlcNAc(b1-3)Gal(b1-3)[Fuc(a1-4)]GlcNAc
# Method in brief: as §1
# [4] = target: Neu5Ac(a2-3)Gal(b1-3)[Fuc(a1-4)]GlcNAc(b1-3)Gal(b1-4)[Fuc(a1-3)]GlcNAc
# Method in brief: as §1
# [5] = target: Neu5Ac(a2-3)Gal(b1-3)[GlcNAc(b1-6)]GalNAc
# Method in brief: as §1
# [6] = target: Neu5Ac(a2-3)Gal(b1-3)[Neu5Ac(a2-6)]GalNAc
# Method in brief: as §1
# [7] = target: Neu5Ac(a2-3)Gal(b1-3)[Neu5Ac(a2-6)]GlcNAc(b1-3)[Fuc(a1-3)[Gal(b1-4)]GlcNAc(b1-6)]Gal(b1-4)Glc
# Method in brief: as §1
# [8] = target: Neu5Ac(a2-3)Gal(b1-3)]Neu5Ac(a2-3)Gal(b1-4)]GlcNAc
# Method in brief: as §1
# [9] = target: Neu5Ac(a2-3)Gal(b1-4)Glc
# Method in brief: as §1
# [10] = target: Neu5Ac(a2-3)Gal(b1-4)GlcNAc
# Method in brief: as §1
# [11] = target: Neu5Ac(a2-3)Gal(b1-4)GlcNAc(b1-2)Man
# Method in brief: as §1
# [12] = target: Neu5Ac(a2-3)Gal(b1-4)GlcNAc(b1-2)Man(a1-3)[GlcNAc(b1-4)][Neu5Ac(a2-3)Gal(b1-4)GlcNAc(b1-2)Man(a1-6)]Man(b1-4)GlcNAc(b1-4)GlcNAc
# Method in brief: as §1
# [13] = target: Neu5Ac(a2-3)Gal(b1-4)GlcNAc(b1-2)Man(a1-3)[Neu5Ac(a2-3)Gal(b1-4)GlcNAc(b1-2)Man(a1-6)]Man(b1-4)GlcNAc(b1-4)GlcNAc
# Method in brief: as §1
# [14] = target: Neu5Ac(a2-3)Gal(b1-4)GlcNAc(b1-2)Man(a1-3)[Neu5Ac(a2-3)Gal(b1-4)GlcNAc(b1-2)Man(a1-6)]Man(b1-4)GlcNAc(b1-4)[Fuc(a1-6)]GlcNAc
# Method in brief: as §1
# [15] = target: Neu5Ac(a2-3)Gal(b1-4)GlcNAc(b1-2)Man(a1-3)[Neu5Ac(a2-6)Gal(b1-4)GlcNAc(b1-2)Man(a1-6)]Man(b1-4)GlcNAc(b1-4)GlcNAc
# Method in brief: as §1
# [16] = target: Neu5Ac(a2-3)Gal(b1-4)GlcNAc(b1-2)[Neu5Ac(a2-3)Gal(b1-4)GlcNAc(b1-4)]Man(a1-3)[GlcNAc(b1-4)][Neu5Ac(a2-3)Gal(b1-4)GlcNAc(b1-2)[Neu5Ac(a2-3)Gal(b1-4)GlcNAc(b1-6)]Man(a1-6)]Man(b1-4)GlcNAc(b1-4)GlcNAc
# Method in brief: as §1
# [17] = target: Neu5Ac(a2-3)Gal(b1-4)GlcNAc(b1-2)[Neu5Ac(a2-3)Gal(b1-4)GlcNAc(b1-4)]Man(a1-3)[GlcNAc(b1-4)][Neu5Ac(a2-3)Gal(b1-4)GlcNAc(b1-4)Man(a1-6)]Man(b1-4)GlcNAc(b1-4)GlcNAc
# Method in brief: as §1
# [18] = target: Neu5Ac(a2-3)Gal(b1-4)GlcNAc(b1-2)[Neu5Ac(a2-3)Gal(b1-4)GlcNAc(b1-6)]Man(a1-6)[Neu5Ac(a2-3)Gal(b1-4)GlcNAc(b1-2)Man(a1-3)]Man(b1-4)GlcNAc(b1-4)GlcNAc
# Method in brief: as §1
# [19] = target: Neu5Ac(a2-3)Gal(b1-4)GlcNAc(b1-2)[Neu5Ac(a2-3)Gal(b1-4)GlcNAc(b1-6)]Man(a1-6)[Neu5Ac(a2-3)Gal(b1-4)GlcNAc(b1-2)Man(a1-3)][GlcNAc(b1-4)]Man(b1-4)GlcNAc(b1-4)GlcNAc
# Method in brief: as §1
# [20] = target: Neu5Ac(a2-3)Gal(b1-4)GlcNAc(b1-3)Gal
# Method in brief: as §1
# [21] = target: Neu5Ac(a2-3)Gal(b1-4)GlcNAc(b1-3)Gal(b1-3)GlcNAc
# Method in brief: as §1
# [22] = target: Neu5Ac(a2-3)Gal(b1-4)GlcNAc(b1-3)Gal(b1-4)GlcNAc
# Method in brief: as §1
# [23] = target: Neu5Ac(a2-3)Gal(b1-4)GlcNAc(b1-3)Gal(b1-4)GlcNAc(b1-2)Man(a1-3)[Neu5Ac(a2-3)Gal(b1-4)GlcNAc(b1-3)Gal(b1-4)GlcNAc(b1-2)Man(a1-6)]Man(b1-4)GlcNAc(b1-4)GlcNAc
# Method in brief: as §1
# [24] = target: Neu5Ac(a2-3)Gal(b1-4)GlcNAc(b1-3)Gal(b1-4)GlcNAc(b1-3)Gal(b1-4)GlcNAc
# Method in brief: as §1
# [25] = target: Neu5Ac(a2-3)Gal(b1-4)GlcNAc(b1-3)Gal(b1-4)GlcNAc(b1-3)Gal(b1-4)GlcNAc(b1-2)Man(a1-3)[Neu5Ac(a2-3)Gal(b1-4)GlcNAc(b1-3)Gal(b1-4)GlcNAc(b1-3)Gal(b1-4)GlcNAc(b1-2)Man(a1-6)]GalNAc
# Method in brief: as §1
# [26] = target: Neu5Ac(a2-3)Gal(b1-4)GlcNAc(b1-3)Gal(b1-4)GlcNAc(b1-3)GalNAc
# Method in brief: as §1
# [27] = target: Neu5Ac(a2-3)Gal(b1-4)GlcNAc(b1-3)Gal(b1-4)GlcNAc(b1-3)[Neu5Ac(a2-3)Gal(b1-4)GlcNAc(b1-3)Gal(b1-4)GlcNAc(b1-6)]GalNAc
# Method in brief: as §1
# [28] = target: Neu5Ac(a2-3)Gal(b1-4)GlcNAc(b1-3)Gal(b1-4)GlcNAc(b1-6)[Gal(b1-3)]GalNAc
# Method in brief: as §1
# [29] = target: Neu5Ac(a2-3)Gal(b1-4)GlcNAc(b1-3)Gal(b1-4)[Fuc(a1-3)]GlcNAc
# Method in brief: as §1
# [30] = target: Neu5Ac(a2-3)Gal(b1-4)GlcNAc(b1-3)GalNAc
# Method in brief: as §1
binder,measurement,setting,value
B1,glycan array binding signal (z-score),[1],-0.333
same,glycan array binding signal (z-score),[2],-0.33
same,glycan array binding signal (z-score),[3],-0.321
same,glycan array binding signal (z-score),[4],-0.324
same,glycan array binding signal (z-score),[5],-0.342
same,glycan array binding signal (z-score),[6],-0.339
same,glycan array binding signal (z-score),[7],-0.311
same,glycan array binding signal (z-score),[8],-0.332
same,glycan array binding signal (z-score),[9],-0.334
same,glycan array binding signal (z-score),[10],-0.329
same,glycan array binding signal (z-score),[11],-0.234
same,glycan array binding signal (z-score),[12],-0.338
same,glycan array binding signal (z-score),[13],-0.336
same,glycan array binding signal (z-score),[14],-0.324
same,glycan array binding signal (z-score),[15],-0.326
same,glycan array binding signal (z-score),[16],-0.334
same,glycan array binding signal (z-score),[17],-0.338
same,glycan array binding signal (z-score),[18],-0.325
same,glycan array binding signal (z-score),[19],-0.333
same,glycan array binding signal (z-score),[20],-0.34
same,glycan array binding signal (z-score),[21],-0.342
same,glycan array binding signal (z-score),[22],-0.337
same,glycan array binding signal (z-score),[23],-0.31
same,glycan array binding signal (z-score),[24],-0.337
same,glycan array binding signal (z-score),[25],-0.302
same,glycan array binding signal (z-score),[26],-0.321
same,glycan array binding signal (z-score),[27],-0.323
same,glycan array binding signal (z-score),[28],-0.325
same,glycan array binding signal (z-score),[29],-0.34
same,glycan array binding signal (z-score),[30],-0.271
